These are yes or no findings as the source states them, for the method shown. Binding seen in cells or lysates may run through a third protein. Some entries that bind do so weakly or less than the wild type.

Chains of the proteins cited; added tags and fusions are not shown. Lines headed by an entry give the natural chain unless they say otherwise; changes in a name come on top.
UniProt P62142: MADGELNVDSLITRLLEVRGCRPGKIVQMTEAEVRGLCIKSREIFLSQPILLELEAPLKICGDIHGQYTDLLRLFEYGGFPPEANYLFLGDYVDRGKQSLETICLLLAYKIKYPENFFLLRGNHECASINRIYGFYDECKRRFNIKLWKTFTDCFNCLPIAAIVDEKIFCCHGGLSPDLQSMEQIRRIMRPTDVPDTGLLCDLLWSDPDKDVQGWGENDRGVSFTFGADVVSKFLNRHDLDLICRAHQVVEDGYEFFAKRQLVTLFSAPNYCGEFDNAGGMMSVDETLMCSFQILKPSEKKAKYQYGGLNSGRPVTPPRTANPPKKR
UniProt P60881: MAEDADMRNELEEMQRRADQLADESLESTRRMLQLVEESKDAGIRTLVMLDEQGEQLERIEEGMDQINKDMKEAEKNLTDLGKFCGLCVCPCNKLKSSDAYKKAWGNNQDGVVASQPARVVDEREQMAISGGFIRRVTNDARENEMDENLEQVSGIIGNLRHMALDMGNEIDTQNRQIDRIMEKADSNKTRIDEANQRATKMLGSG

Assay in all cases: co-IP; reciprocal immunoprecipitation from precleared B50 neuroblastoma cell lysate with anti-SNAP-25, anti-MYPT1^1-296 or anti-PP1cδ on protein-A Sepharose; IP buffer 50 mM Tris-HCl pH 7.4, 150 mM NaCl, 1 mM EDTA, 1% Triton X-100; 90 min at 4°C; Western blot; control: rabbit non-immune serum
For orientation: In western blotting, separated proteins are transferred to a membrane and probed.

For assay [1], the target named is protein phosphatase-1 catalytic subunit delta (PP1cδ), endogenous in B50 neuroblastoma cells (rat (endogenous in B50; the species of the line is from memory, the paper does not state it)) (UniProt P62142).
In assay [2] the target is T1, myosin phosphatase targeting subunit (MYPT1), endogenous in B50 neuroblastoma cells (rat (endogenous in B50; the species of the line is from memory, the paper does not state it)) (UniProt Q10728).
T1 sequence: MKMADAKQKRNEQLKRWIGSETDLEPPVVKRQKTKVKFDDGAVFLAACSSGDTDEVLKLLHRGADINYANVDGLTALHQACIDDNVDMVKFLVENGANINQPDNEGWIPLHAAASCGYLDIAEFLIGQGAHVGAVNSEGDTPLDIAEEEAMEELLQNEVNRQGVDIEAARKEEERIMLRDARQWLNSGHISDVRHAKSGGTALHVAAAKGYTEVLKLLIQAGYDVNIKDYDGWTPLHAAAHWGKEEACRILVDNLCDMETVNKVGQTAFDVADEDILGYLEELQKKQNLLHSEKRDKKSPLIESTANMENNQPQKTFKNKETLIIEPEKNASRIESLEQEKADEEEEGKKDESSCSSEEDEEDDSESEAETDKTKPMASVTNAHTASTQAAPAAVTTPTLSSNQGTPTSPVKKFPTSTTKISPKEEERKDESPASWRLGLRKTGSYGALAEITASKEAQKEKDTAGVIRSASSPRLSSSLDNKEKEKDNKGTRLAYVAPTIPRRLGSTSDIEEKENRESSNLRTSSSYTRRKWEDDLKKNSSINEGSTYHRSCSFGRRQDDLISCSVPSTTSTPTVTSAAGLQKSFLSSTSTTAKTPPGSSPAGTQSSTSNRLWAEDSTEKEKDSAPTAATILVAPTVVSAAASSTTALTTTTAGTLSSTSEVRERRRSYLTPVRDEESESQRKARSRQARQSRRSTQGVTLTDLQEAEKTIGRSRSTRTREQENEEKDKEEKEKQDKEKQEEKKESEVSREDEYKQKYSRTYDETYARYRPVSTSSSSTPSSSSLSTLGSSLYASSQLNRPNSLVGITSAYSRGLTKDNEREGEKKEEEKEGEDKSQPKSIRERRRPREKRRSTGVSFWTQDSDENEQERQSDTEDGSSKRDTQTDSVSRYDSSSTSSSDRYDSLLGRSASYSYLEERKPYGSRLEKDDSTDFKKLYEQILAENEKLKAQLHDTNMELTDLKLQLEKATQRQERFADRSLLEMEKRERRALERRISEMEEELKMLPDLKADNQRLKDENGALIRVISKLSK

Assay [3] deals with synaptosomal-associated protein of 25 kDa (SNAP-25), endogenous in B50 neuroblastoma cells (rat (endogenous in B50; the species of the line is from memory, the paper does not state it)) (UniProt P60881).

On to “synaptosomal-associated protein of 25 kDa (SNAP-25), endogenous in B50 neuroblastoma cells (from UniProt P60881 1-206)”, for which the binding entry in assay [1] is given as “no binding”; in assay [2], “binds”.

For “protein phosphatase-1 catalytic subunit delta (PP1cδ), endogenous in B50 neuroblastoma cells (from UniProt P62142 1-327) (enzyme)”, the binding result in assay [2] is recorded as “binds”.

B1: myosin phosphatase targeting subunit (MYPT1), endogenous in B50 neuroblastoma cells (protein, UniProt Q10728 1-1032)
chain: T1 sequence
Take B1: the binding result in assay [1] and in assay [3] was “binds” each time.

For the origin of these results see paper PMC5423623.
